This is an account of results in ChEMBL document CHEMBL1201862, “PubChem BioAssay data set” (2004).

Structures are written as SMILES. Where a name gives a salt, the structure may show the parent alone.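 Step 1: Grow cells in 96-well plates. Step 2: Expose to compound for 48 hours at 5 concentrations. Step 3: Interpolate endpoints linearly; if unreached, use highest concentration. GI50 marks 50% less growth.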 Active and inactive are the calls of the source. Rule as the data show it: active = GI50 up to about 1.1 µM and inactive = higher.

This experiment deals with NCI-H322M. Description: inhibition of tumour cell growth, NCI panel, 48 h.
For `C=C1C(=O)O[C@@H]2O[C@@]3(C)CC[C@H]4[C@H](C)CC[C@@H]1[C@@]24O3` [DEOXYARTEMISITENE], the GI50 is inactive: 46.1 µM.
Turning to `C[C@H](CCC(=O)O)[C@H]1CC[C@H]2[C@@H]3CC[C@@H]4C[C@H](O)CC[C@]4(C)[C@H]3C[C@H](O)[C@]12C` [DEOXYCHOLIC ACID], the GI50 is inactive: 43.7 µM.
As to `COc1cc([C@@H]2c3cc4c(cc3C[C@H]3COC(=O)[C@@H]32)OCO4)cc(OC)c1OC` [DESOXYPODOPHYLLOTOXIN], the GI50 was active: 0.00944 µM.
With `C[C@@H]1C[C@H]2[C@@H]3CCC4=CC(=O)C=C[C@]4(C)[C@@]3(F)[C@@H](O)C[C@]2(C)[C@@]1(O)C(=O)CO` [DEXAMETHASONE] the figure was inactive: > 100 µM.
On to `CCOC(=O)NC1=C(N2CC2)C(=O)C(NC(=O)OCC)=C(N2CC2)C1=O` [DIAZIQUONE], for which the GI50 was inactive: 16.7 µM.
Regarding `c1ccc(CSSSCc2ccccc2)cc1` [DIBENZYL TRISULFIDE], the GI50 was inactive: 7.93 µM.
On to `COc1ccc([C@@]23Oc4cc(OC)cc(OC)c4[C@]2(O)[C@H](O)[C@H](C(N)=O)[C@H]3c2ccccc2)cc1` [DIDESMETHYLROCAGLAMIDE], for which the GI50 was active: < 0.01 µM.
On to `C[C@]12CC[C@H](O)C[C@H]1CC[C@@H]1[C@@H]2CC[C@]2(C)[C@@H](C3=CC(=O)OC3)CC[C@]12O` [DIGITOXIGENIN], for which the GI50 was active: 0.169 µM.
`O=C1c2ccc(O)cc2OC(c2cc(O)c(O)c(O)c2)C1O` (stereo not drawn) [DIHYDROBINETIN]: the GI50 was inactive: > 100 µM.
Take `O=C1CCc2ccccc2O1` [DIHYDROCOUMARIN]: the GI50 is inactive: > 100 µM.
The value for `COc1cc([C@H]2Oc3c(OC)cc(CCCO)cc3[C@@H]2CO)ccc1O` [DIHYDRODEHYDRODICONIFERY ALCOHOL] was inactive: > 100 µM.
As for `CN(C)CCCN1c2ccccc2C(C)(C)c2ccccc21` [DIMETACRINE], the GI50 was inactive: 15.3 µM.
In the case of `CCN(CC)C(=S)S` [DITIOCARB SODIUM], the GI50 is inactive: > 100 µM.
In the case of `NC(Cc1ccccc1)C(=O)O` (stereo not drawn) [DL-PHENYLALANINE], the GI50 is inactive: > 100 µM.
The value for `NC(Cc1c[nH]c2ccccc12)C(=O)O` (stereo not drawn) [DL-TRYPTOPHAN] was inactive: > 300 µM; that for `CC(=O)O[C@@]12CO[C@@H]1C[C@H](O)[C@@]1(C)C(=O)[C@H](O)C3=C(C)[C@@H](OC(=O)[C@H](O)[C@@H](NC(=O)OC(C)(C)C)c4ccccc4)C[C@@](O)([C@@H](OC(=O)c4ccccc4)[C@H]21)C3(C)C` [DOCETAXEL] was active: 0.01 µM; that for `O=c1[nH]c2ccccc2n1CCCN1CCC(n2c(=O)[nH]c3cc(Cl)ccc32)CC1` [DOMPERIDONE] was inactive: 18.1 µM.
With `CC(C)(C)c1cc(O)ccc1O` [E319], the GI50 is inactive: > 100 µM.
`Clc1ccc(COC(Cn2ccnc2)c2ccc(Cl)cc2Cl)cc1` (stereo not drawn) [ECONAZOLE NITRATE]: the GI50 is inactive: 12.9 µM.
As for `Clc1ccc(COC(Cn2ccnc2)c2ccc(Cl)cc2Cl)cc1` (stereo not drawn) [ECONAZOLE], the GI50 was inactive: 12.6 µM.
With `C=C(C)C(=O)O[C@H]1CC2=C[C@@H](C[C@@]3(C)O[C@@H]3[C@H]3OC(=O)C(=C)[C@@H]31)OC2=O` [ELEPHANTOPIN], the GI50 is inactive: 1.91 µM.
Turning to `CC(C)=C[C@@H]1C[C@H](C)c2c(O)cc(C)c3c2C1=C(C)C(=O)C3=O` [ELISABATIN A], the GI50 was inactive: 12.9 µM.
For `O=c1oc2c(O)c(O)cc3c(=O)oc4c(O)c(O)cc1c4c23` [ELLAGIC ACID], the GI50 was inactive: 49.1 µM.
Turning to `Cc1c2ccncc2c(C)c2c1[nH]c1ccccc12` [ELLIPTECINE], the GI50 is active: 0.294 µM.
Turning to `C[C@]12CC[C@@H]3c4ccc(OS(N)(=O)=O)cc4CC[C@H]3[C@@H]1CCC2=O` [EMATE], the GI50 was inactive: 98.2 µM.
On to `CC(C)S(=O)(=O)n1c(N)nc2ccc(/C(=N/O)c3ccccc3)cc21` [ENVIROXIME], for which the GI50 was inactive: 21.3 µM.
Regarding `C/C(=C\c1csc(C)n1)[C@@H]1C[C@@H]2O[C@@H]2CCC[C@H](C)[C@H](O)[C@@H](C)C(=O)C(C)(C)[C@@H](O)CC(=O)O1` [EPOTHILONE A], the GI50 was active: < 0.0001 µM.
With `C/C1=C/C[C@@H](/C(C)=C/c2csc(C)n2)OC(=O)C[C@H](O)C(C)(C)C(=O)[C@H](C)[C@@H](O)[C@@H](C)CCC1` [EPOTHILONE D], the GI50 is active: < 0.0001 µM.
As for `O=C1C(CO)=C[C@@H](O)[C@H]2O[C@@H]12` [EPOXYDON], the GI50 was inactive: > 100 µM.
On to `C=C1CC[C@H]2C(C)=CC[C@H]3C(=C)C(=O)O[C@@H]3[C@@H]12` [EREMANTHIN], for which the GI50 is inactive: > 100 µM.
`CN1C[C@H](C(=O)N[C@]2(C)O[C@@]3(O)[C@@H]4CCCN4C(=O)[C@H](Cc4ccccc4)N3C2=O)C=C2c3cccc4[nH]cc(c34)C[C@H]21` [ERGOTAMINE TARTRATE]: the GI50 is inactive: 38.9 µM.
With `O=S(=O)(O)c1cc(O)c(/N=N/c2ccc3ccccc3c2O)c2ccccc12` [ERIOCHROME BLUE BLACK B], the GI50 is inactive: 27.9 µM.
With `C#Cc1cccc(Nc2ncnc3cc(OCCOC)c(OCCOC)cc23)c1` [ERLOTINIB HYDROCHLORIDE], the GI50 is active: 0.0143 µM.
The value for `COc1ccc(-c2oc3cc(O)cc(O)c3c(=O)c2OC)cc1` [ERMANIN] was inactive: 33.5 µM; that for `O=c1ccc2cc(O)c(O)cc2o1` [ESCULETIN] was inactive: > 100 µM.
With `C[C@]12CC[C@@H]3c4ccc(OC(=O)N(CCCl)CCCl)cc4CC[C@H]3[C@@H]1CC[C@@H]2O` [ESTRAMUSTINE] the figure was active: 0.025 µM.
Regarding `C=CCC1(CC)C(=O)NC(=O)NC1=O` [ETALLOBARBITAL], the GI50 was inactive: > 100 µM.
Regarding `C=C(CC)C(=O)c1ccc(OCC(=O)O)c(Cl)c1Cl` [ETHACRYNIC ACID], the GI50 is inactive: 33 µM.
For `C#C[C@]1(O)CC[C@H]2[C@@H]3CCc4cc(O)ccc4[C@H]3CC[C@@]21C` [ETHINYL ESTRADIOL], the GI50 is inactive: 90.2 µM.
For the molecule `CCOC(=O)c1ccc(O)cc1` [ETHYLPARABEN], the GI50 was inactive: > 100 µM.
The value for `CC12CCC(CC1)C(C)(C)O2` [EUCALYPTOL] was inactive: 28.1 µM; that for `C=C1C(=O)O[C@H]2[C@H]1[C@H](OC(=O)/C(C)=C\C)C[C@]1(CO1)[C@@H]1[C@H](OC(C)=O)C=C(C)[C@]21O` [EUPAROTIN ACETATE] was inactive: > 72.3 µM; that for `COc1cc2c(ccc3c4cc(OC)c(OC)cc4c[n+](C)c23)cc1O` [FAGARONINE] was inactive: 7.43 µM.
On to `COc1ccc2cc1Oc1ccc(cc1)C[C@H]1c3cc(c(OC)cc3CCN1C)Oc1c(O)c(OC)cc3c1[C@H](C2)N(C)CC3` [FANGCHINOLINE], for which the GI50 was inactive: 36.5 µM.
With `COc1cc(/C=C/C(=O)O)ccc1O` [FERULATE] the figure was inactive: > 100 µM; with `O=c1[nH]c(=O)n([C@@H]2O[C@H](CO)[C@@H](O)[C@@H]2F)cc1I` [FIALURIDINE], inactive: > 100 µM; with `O=c1oc2c(O)c(O)c(O)c3c(=O)oc4c(O)c(O)cc1c4c23` [FLAVELLAGIC ACID], inactive: > 100 µM.
Regarding `COc1cc(O)c(C(=O)/C=C/c2ccccc2)c(OC)c1` [FLAVOKAWAIN B], the GI50 is inactive: 5.16 µM.
Take `CC1(C)O[C@@H]2C[C@H]3[C@@H]4C[C@H](F)C5=CC(=O)C=C[C@]5(C)[C@@]4(F)[C@@H](O)C[C@]3(C)[C@]2(C(=O)CO)O1` [FLUOCINOLONE ACETONIDE]: the GI50 is inactive: > 100 µM.
With `Cc1[nH]c(=O)[nH]c(=O)c1N(CCF)CCCl` [FLUORODOPAN], the GI50 was inactive: 520 µM.
`O=C1C(Cl)=C(Cl)C(=O)N1c1ccc(F)cc1` [FLUOROIMIDE]: the GI50 was inactive: > 65.9 µM.
With `CC(=O)O[C@]1(C(C)=O)CC[C@H]2[C@@H]3C[C@H](C)C4=CC(=O)C=C[C@]4(C)[C@@]3(F)[C@@H](O)C[C@@]21C` [FLUOROMETHOLONE ACETATE] the figure was inactive: > 100 µM.
Take `CC(=O)OCC(=O)[C@@]12OC(C)(C)O[C@@H]1C[C@H]1[C@@H]3CC(C=O)=C4C=C(OCCCl)CC[C@]4(C)[C@@]3(F)[C@@H](O)C[C@@]12C` [FORMOCORTAL]: the GI50 is inactive: 21 µM.
For the molecule `COc1ccc(-c2coc3cc(O)ccc3c2=O)cc1` [FORMONONETIN], the GI50 was inactive: > 100 µM.
For the molecule `C[C@@](O)(/C=C/[C@H]1CC=CC(=O)O1)[C@@H](C[C@@H](O)\C=C/C=C\C=C\CO)OP(=O)(O)O` [FOSTRIECIN SODIUM], the GI50 was inactive: 3.56 µM.
The value for `O=C1OC(CN2CCOCC2)CN1/N=C/c1ccc([N+](=O)[O-])o1` (stereo not drawn) [FURALTADONE] was inactive: 36 µM.
The value for `O=C1O[C@H]2[C@H](O)[C@@H](OC(=O)c3cc(O)c(O)c4c3[C@@H]3C1=CC(=O)C(O)(O)C3(O)O4)[C@H](OC(=O)c1cc(O)c(O)c(O)c1)O[C@@H]2CO` (stereo partly drawn) [FUROSIN] was inactive: 72.6 µM.
With `COC1=CC(=O)c2c(O)c3c(c(O)c2C1=O)CC(C)(O)OC3` (stereo not drawn) [FUSARUBIN] the figure was inactive: 2.76 µM; with `COc1ccc2c3c1O[C@H]1C[C@@H](O)C=C[C@@]31CCN(C)C2` [GALANTAMINE], inactive: > 80.9 µM.
Regarding `Oc1cc(O)c2c(c1)O[C@H](c1cc(O)c(O)c(O)c1)[C@@H](O)C2` [GALLOCATECHIN], the GI50 was inactive: 54.1 µM.
On to `COc1ccc(-c2cc(=O)c3c(O)c(OC)c(OC)c(OC)c3o2)cc1` [GARDENIN B], for which the GI50 was inactive: > 100 µM.
With `CN(C)c1ccc(C(=C2C=CC(=[N+](C)C)C=C2)c2ccc(N(C)C)cc2)cc1` [GENTIAN VIOLET] the figure was active: 0.387 µM.
Consider `CC(C)=CCC/C(C)=C/CO` [GERANIOL], for which the GI50 was inactive: > 100 µM.
